How the values were obtained:
[1] = tested on: mouse colon cancer cell MC-38 (PD-L1) xenograft; experiment: MC38 (PD-L1) xenograft in human PD-1 transgenic C57 mice; type: in vivo; conditions: anti-PD-1 antibody 3 mg/kg ip Q2D*7, apatinib 200 mg/kg po QD*14; for % Tumor inhibition rate D21: day 21, vs HIgG control
Protocol: • 1. Study purposes: Human PD-1 transgenic mice were used as test animals. The effects of anti-PD-1 antibody in combination with apartinib on human PD-1 expressed in transgenic C57 mice were evaluated, and the transgenic mice bear mouse colon cancer cell MC-38 (PD-L1) xenograft transfected with PD-L1 gene. • 2. Test antibodies and compounds: The anti-PD-1 antibody was prepared according to the method disclosed in WO2015085847 in which the corresponding code of the antibody is H005-1, and the sequences of the heavy and light chain are shown in SEQ ID NO: 7 and SEQ ID NO: 8 in the present invention. Lot number: P1512, 200 mg/vial, formulated into 20 mg/ml before use. Apatinib mesylate was prepared according to the method disclosed in CN101676267A, lot number: 668160401; molecular weight: 493.58; purity: 99.60%. • 3. Experimental animals: Human PD-1 transgenic C57 mice, specific-pathogen-free (SPF), with different body weights, 50% male and 50% female, were purchased from IsisInnovation Limited, UK. • 4. Drug preparation: Anti-PD-1 antibody (3 mg/kg): anti-PD-1 antibody stock solution (20 mg/ml) was adjusted to a concentration of 0.3 mg/ml with phosphate buffered saline (PBS), and the intraperitoneal injection volume was 0.2 ml/mouse. Apatinib (200 mg/kg): 400 mg apatinib was dissolved in 20 ml of 0.5% sodium carboxymethylcellulose (NaCMC), adjusted to 20 mg/ml, and was administered in 0.2 ml per mouse by gavage. The solvent vehicle (HIgG) control contained human IgG (3 mg/kg dissolved in 0.5% CMC, adjusted to 0.3 mg/ml, and the volume for intraperitoneal injection was 0.2 ml/mouse. • 5. Test method: • 5.1 C57 mice were adapted to the laboratory environment for >5 days. • 5.2 Tumor cells transplantation: Skin preparation was performed on human PD-1 transgenic C57 mice one day before MC38 (PD-L1) cells (5×10^6/mouse) were inoculated subcutaneously at the right flank on June 12. The tumors were then grown for 8 days. When the tumors reached 142.17±13.30 mm^3, the animals were randomly assigned to 4 groups (d0) with 8 mice in each group (four male mice and four female mice in each group). • 5.3 Dose and method of administration: Anti-PD-1 antibody was injected intraperitoneally, Q2D*7 (once every 2 days, 7 times in total), and apatinib was administered by oral gavage, QD*14 (once a day for 14 days). The specific drug administration regimen is shown in Table 1. • 5.4 Determination of volume of xenograft and body weight of mice: Tumor volume and body weight were measured twice a week and data were recorded. • 5.5 Statistics: Excel 2003 statistical software was used: the mean was calculated by avg; the SD value was calculated by STDEV; the SEM value was calculated by STDEV/SQRT; the P value indicating the difference between groups is calculated by TTEST. […]

advanced malignant tumor = conditions: human, in vivo
From the text: Inclusion criteria: (1) advanced malignancy; (2) failure in chemotherapy by using first-line, second-line or above; (3) measurable lesions; (4) ECOG score 0-1.
Test drugs: commercially available apatinib mesylate tablet; the anti-PD-1 antibody of Example 1.
Method of administration: Up to Sep. 20, 2017, a total of 31 subjects were screened, 30 subjects were enrolled (14 subjects withdrew from treatment, and 16 subjects were still in the group of administration).
Administration method for subjects No. 001-005 was intravenous infusion of anti-PD-1 antibody, 3 mg/kg, once every 2 weeks; apatinib orally, 500 mg, once a day. Administration method for subjects No. 006-010 was intravenous infusion of anti-PD-1 antibody, 200 mg, once every 2 weeks; apatinib orally, 125 mg, once a day. Administration method for subjects No. 011-031 was intravenous infusion of anti-PD-1 antibody, 200 mg, once every 2 weeks; apatinib orally, 250 mg, once a day.

advanced solid tumors = conditions: in vivo; cited from earlier work

B1: Anti-PD-1 antibody: humanized anti-PD-1 antibody, code H005-1 in WO2015085847; heavy chain SEQ ID NO: 7, light chain SEQ ID NO: 8 (antibody)
heavy: EVQLVESGGGLVQPGGSLRLSCAASGFTFSSYMMSWVRQAPGKGLEWVATISGGGANTYYPDSVKGRFTISRDNAKNSLYLQMNSLRAEDTAVYYCARQLYYFDYWGQGTTVTVSSASTKGPSVFPLAPCSRSTSESTAALGCLVKDYFPEPVTVSWNSGALTSGVHTFPAVLQSSGLYSLSSVVTVPSSSLGTKTYTCNVDHKPSNTKVDKRV[sequence of human IgG4 Fc with S228P (EU numbers) omitted]
light: DIQMTQSPSSLSASVGDRVTITCLASQTIGTWLTWYQQKPGKAPKLLIYTATSLADGVPSRFSGSGSGTDFTLTISSLQPEDFATYYCQQVYSIPWTFGGGTKVEIKRTVAAPSVFIFPPSDEQLKSGTASVVCLLNNFYPREAKVQWKVDNALQSGNSQESVTEQDSKDSTYSLSSTLTLSKADYEKHKVYACEVTHQGLSSPVTKSFNRGEC
modifications: PD-1 FORM Heavy chain; PD-1 FORM Light chain
In the case of B1, the “Relative tumor volume D21” value ([1]; RTV=VT/V0, day 21) is reported as 11.47, the “% Tumor inhibition rate D21” value [1] is reported as 20.40% and the “% Tumor inhibition rate D21” value ([1]; listed as anti-PD-1 antibody) is reported as 20.40%. For the same molecule, the “Mean tumor volume (mm^3) D21” value ([1]; day 21 after initial administration, 8 mice/group) was 1652.93 mm^3, the hemangioma-associated adverse effect (advanced malignant tumor) was “observed in only one subject” and the “incidence of capillary hemangioma” value (advanced solid tumors) was 79.3%. The incidence of diarrhea (advanced solid tumors) was 10.3%, the incidence of hypothyroidism (advanced solid tumors) was 29.3% and the incidence of pruritus (advanced solid tumors) was 19.0%.
